Results published in the supplement of paper PMC9151546.
Most values come without repeats; read them as rough.

Legend:
CHO-K1 [1] = experiment: hypodiploid nuclei frequency (% of nucleated events); higher = more hypodiploid events (aneugenic)
Procedure: (§1)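 Flow-cytometric in vitro micronucleus assay (Litron MicroFlow) in CHO-K1 cells in 96-well plates, 19 concentrations (4.5-200 µM, n=1 per concentration). Without S9, cells were exposed for 24 h and sampled at 48 h. With Aroclor 1254-induced rat liver S9, cells were exposed for 3-4 h and sampled at 27-28 h. Read-outs are %MN and %hypodiploid nuclei relative to nucleated events, and relative survival as the nuclei-to-bead ratio versus the 1% DMSO vehicle control (x100).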

CHO-K1 [2] = experiment: micronucleus frequency (% of nucleated events); higher = more micronuclei (genotoxic)
CHO-K1 [3] = experiment: relative survival (nuclei to bead ratio vs DMSO control) (% of vehicle control); higher = more surviving cells
Procedure: as §1
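For hypodiploid nuclei frequency (% of nucleated events) in this document: hypodiploid nuclei gated on a flow cytometer with 488 nm excitation after SYTOX Green staining, cultures at 37 °C, positive controls vinblastine without S9 and cyclophosphamide with S9.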
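For micronucleus frequency (% of nucleated events) in this document: cells lysed with nuclei stained by SYTOX Green, then micronucleus-gated events counted against nucleated events by flow cytometry with 488 nm excitation.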
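For relative survival (nuclei to bead ratio vs DMSO control) in this document: Lysed-cell nuclei stained with SYTOX Green and counted against counting beads by flow cytometry at 488 nm excitation, with vinblastine (no S9) and cyclophosphamide (plus S9) as positive controls.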

O=C(OC[C@H]1O[C@@H](OC(=O)c2cc(O)c(O)c(OC(=O)c3cc(O)c(O)c(O)c3)c2)[C@H](OC(=O)c2cc(O)c(O)c(OC(=O)c3cc(O)c(O)c(O)c3)c2)[C@@H](OC(=O)c2cc(O)c(O)c(OC(=O)c3cc(O)c(O)c(O)c3)c2)[C@@H]1OC(=O)c1cc(O)c(O)c(OC(=O)c2cc(O)c(O)c(O)c2)c1)c1cc(O)c(O)c(OC(=O)c2cc(O)c(O)c(O)c2)c1 [Tannic acid]
Details	hypodiploid nuclei frequency, CHO-K1 [1] [%]	micronucleus frequency, CHO-K1 [2] [%]	relative survival, CHO-K1 [3]
concentration: 0.137 (µM), S9 metabolic activation: with S9, exposure time: 3-4 hours	0.22	1.58	85.1
concentration: 0.137 (µM), S9 metabolic activation: without S9, exposure time: 24 hours	0.78	2.46	106
concentration: 0.172 (µM), S9 metabolic activation: with S9, exposure time: 3-4 hours	0.24	1.62	80
concentration: 0.172 (µM), S9 metabolic activation: without S9, exposure time: 24 hours	0.6	1.68	93
concentration: 0.215 (µM), S9 metabolic activation: with S9, exposure time: 3-4 hours	0.22	1.68	72.9
concentration: 0.215 (µM), S9 metabolic activation: without S9, exposure time: 24 hours	0.62	1.66	124
concentration: 0.268 (µM), S9 metabolic activation: with S9, exposure time: 3-4 hours	0.12	1.76	82.3
concentration: 0.268 (µM), S9 metabolic activation: without S9, exposure time: 24 hours	0.72	1.76	118
concentration: 0.335 (µM), S9 metabolic activation: with S9, exposure time: 3-4 hours	0.22	1.48	79.8
concentration: 0.335 (µM), S9 metabolic activation: without S9, exposure time: 24 hours	0.84	2	98.1
concentration: 0.419 (µM), S9 metabolic activation: with S9, exposure time: 3-4 hours	0.42	1.86	103
concentration: 0.419 (µM), S9 metabolic activation: without S9, exposure time: 24 hours	0.76	2.24	108
concentration: 0.524 (µM), S9 metabolic activation: with S9, exposure time: 3-4 hours	0.12	1.36	77.6
concentration: 0.524 (µM), S9 metabolic activation: without S9, exposure time: 24 hours	0.6	1.8	107
concentration: 0.655 (µM), S9 metabolic activation: with S9, exposure time: 3-4 hours	0.24	1.48	76.2
concentration: 0.655 (µM), S9 metabolic activation: without S9, exposure time: 24 hours	0.92	2.06	95.5
concentration: 0.819 (µM), S9 metabolic activation: with S9, exposure time: 3-4 hours	0.2	0.96	96.7
concentration: 0.819 (µM), S9 metabolic activation: without S9, exposure time: 24 hours	0.56	2.42	110
concentration: 1.02 (µM), S9 metabolic activation: with S9, exposure time: 3-4 hours	0.22	1.8	83.2
concentration: 1.02 (µM), S9 metabolic activation: without S9, exposure time: 24 hours	0.66	2.44	99.5
concentration: 1.28 (µM), S9 metabolic activation: with S9, exposure time: 3-4 hours	0.38	2.46	87.7
concentration: 1.28 (µM), S9 metabolic activation: without S9, exposure time: 24 hours	0.88	1.86	123
concentration: 1.6 (µM), S9 metabolic activation: with S9, exposure time: 3-4 hours	0.48	5.38	76.6
concentration: 1.6 (µM), S9 metabolic activation: without S9, exposure time: 24 hours	0.94	2.08	98.6
concentration: 2 (µM), S9 metabolic activation: with S9, exposure time: 3-4 hours	0.54	7.01	51.9
concentration: 2 (µM), S9 metabolic activation: without S9, exposure time: 24 hours	0.96	2.2	85
concentration: 2.5 (µM), S9 metabolic activation: with S9, exposure time: 3-4 hours	0.9	5.27	51.2
concentration: 2.5 (µM), S9 metabolic activation: without S9, exposure time: 24 hours	1.2	2.54	69.2
concentration: 3.12 (µM), S9 metabolic activation: with S9, exposure time: 3-4 hours	0.93	4.31	47.5
concentration: 3.12 (µM), S9 metabolic activation: without S9, exposure time: 24 hours	1.2	2.72	56.8
concentration: 3.9 (µM), S9 metabolic activation: with S9, exposure time: 3-4 hours	0.78	4.73	47.5
concentration: 3.9 (µM), S9 metabolic activation: without S9, exposure time: 24 hours	0.74	2.16	53.2
concentration: 4.88 (µM), S9 metabolic activation: with S9, exposure time: 3-4 hours	0.83	4.84	47.6
concentration: 4.88 (µM), S9 metabolic activation: without S9, exposure time: 24 hours	0.86	1.6	42.6
concentration: 6.1 (µM), S9 metabolic activation: with S9, exposure time: 3-4 hours	0.87	3.89	52.6
concentration: 6.1 (µM), S9 metabolic activation: without S9, exposure time: 24 hours	–	–	38.8
